# Test results from PubChem BioAssay AID651820 (National Center for Advancing Translational Sciences (NCATS), 2012).
# “And” between values parts separate entries of the source, which are not always exact repeats. Equal values may be shown once. The campaign covered roughly 340,000 compounds. About 12,000 (3.5%) were called active. Inconclusive results, whose numbers are uncertain, are shown with a selection of clear calls. The call rests on the fitted dose curve; in most records, active means well fitted inhibition curve with a large enough effect; inconclusive means small, poorly fitted or top-dose-only effect, or another doubt; inactive means no such curve, though single readings can be large or run the other way. Potencies of inconclusive entries are doubtful fits and often do not repeat.
# Test: qHTS Assay for Inhibitors of Hepatitis C Virus (HCV)
# Conditions: Huh7.5.1 HCVcc-Cre (HCVcc is cell-culture hepatitis C virus) infection, luciferase reporter, 44 h; series mostly up to 41.8 µM
# In short: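 Cells seeded at 1,000/well and cultured 4 h, then compounds added followed by HCVcc-Cre virus (~0.5 moi). After 44 h further culture, luciferase substrate was added, plates held 15 min at room temperature, and luminescence read for 15 sec.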
# Potency means the concentration at half of the fitted maximal effect; tags describe the fitted curve by direction and shape.
row,Compound,Potency
1,CCSc1ccccc1C(=O)N1CCN(c2ccc([N+](=O)[O-])cc2)CC1,active: 10 µM
2,COc1ccc(-n2c(C)nc3c(cnn3-c3ccccc3)c2=O)cc1,active: 11.2 µM
3,O=C(Nc1ccc(OC(F)(F)F)cc1)C1CCCN(C(=O)c2ccc(Cl)cc2)C1 (stereo not given),active: 7.94 µM
4,CCCC1(C)Nc2ccccc2-c2nc3ccccc3n21 (stereo not given),inactive
5,N#CC(C#N)=C1C=C2C=C(N3CCCCCC3)CCC2CC1 (stereo not given),"inconclusive: 6.31 µM [inhibitor, partial curve]"
6,O=C(NCCCN1CCN(c2cccc(Cl)c2)CC1)c1nc(-c2ccncc2)no1,"inconclusive: 12.6 µM [inhibitor, partial curve]"
7,CC(C)CN(C(=O)COC(=O)c1ccc2c(c1)NC(=O)CS2)C1CCS(=O)(=O)C1 (stereo not given),inactive
8,COc1ccc(Nc2nc(-c3cccc([N+](=O)[O-])c3)nc3ccccc23)cc1,"inconclusive: 2 µM [inhibitor, full curve]"
9,CCCn1c(=O)c(C(=O)NCC2CCCO2)c(O)c2ccccc21 (stereo not given),"inconclusive: 12.6 µM [inhibitor, single point]"
10,CSCCC(NS(=O)(=O)c1ccc(Cl)cc1)C(=O)OCC(=O)NC1CC1 (stereo not given),"inconclusive: 2.82 µM [inhibitor, single point]"
11,COc1cc(C(=S)N2CCOCC2)cc(OC)c1OC(=O)c1ccc(F)cc1,"inconclusive: 5.62 µM [inhibitor, single point]"
12,O=C(Nc1ccc(CN2CCOCC2)cc1)c1ccc(Cl)cc1,inactive
13,CC1CC(Nc2ccccc2)c2ccccc2N1C(=O)c1cccnc1 (stereo not given),active: 5.62 µM
14,Cc1ccc(NC(=O)c2ccc(CSc3nnnn3C)cc2)cc1,"inconclusive: 10 µM [inhibitor, single point]"
15,CCN(Cc1ccncc1)Cc1cn[nH]c1-c1ccc(OC)cc1F,"inconclusive: 3.16 µM [inhibitor, single point]"
16,O=C(Nc1ccc(S(=O)(=O)N2CCCCC2)cc1)c1ccc(CN2CCc3ccccc3C2)cc1,active: 35.5 µM
17,Cn1c(=O)c2c(ncn2CC(O)CNc2ccc(F)cc2)n(C)c1=O (stereo not given),inactive
18,CC1(C)SC(=S)N(/N=C/c2ccccc2)C1N(O)C(=O)Nc1ccc([N+](=O)[O-])cc1 (stereo not given),"inconclusive: 10 µM [inhibitor, partial curve]"
19,O=C(N/N=C/c1ccc([N+](=O)[O-])o1)C1CC1,"inconclusive: 31.6 µM [inhibitor, single point]"
20,Clc1ccc(Cc2ccc(SCc3ccccc3)nn2)c(Cl)c1,"inconclusive: 31.6 µM [inhibitor, single point]"
21,CC1Cc2nc(SCC(=O)NCc3ccccc3)n(Cc3ccccc3)c(=O)c2S1 (stereo not given),"inconclusive: 10 µM [inhibitor, partial curve]"
22,c1ccc(-c2nc3ccccn3c2NC2CCCC2)nc1,"inconclusive: 10 µM [inhibitor, partial curve]"
23,COc1ccc2c(c1)OC[C@H]1[C@H]2N2C(=O)c3ccc(C)cc3NC(=O)[C@@]2(C)[C@H]1c1ccccc1,"inconclusive: 22.4 µM [inhibitor, single point]"
24,COc1ccc2[nH]c(=O)c(CN(C3CCCCC3)C(c3nnnn3Cc3ccco3)C(C)C)cc2c1 (stereo not given),"inconclusive: 0.562 µM [inhibitor, full curve, poor fit]"

row,Compound,Potency
1,CCCCn1nc2cc(C(=O)NCc3cc(C(F)(F)F)cc(C(F)(F)F)c3)ccc2c1OCC,"inconclusive: 5.62 µM [inhibitor, full curve]"
2,CC(C)(C)c1nn(-c2ccccc2)c2[nH]c(=O)c(C=O)cc12,"inconclusive: 22.4 µM [inhibitor, partial curve]"
3,CC(SCc1ccccc1)C(=O)Nc1ccccc1Br (stereo not given),inactive
4,O=C(Nc1ccc(Cl)cc1)c1nc[nH]c1C(=O)NCCN(CCNC(=O)c1[nH]cnc1C(=O)Nc1ccc(Cl)cc1)CCNC(=O)c1[nH]cnc1C(=O)Nc1ccc(Cl)cc1,"inconclusive: 5.62 µM [inhibitor, single point]"
5,CC(=O)c1nn(-c2ccc(Cl)cc2)cc1C(=O)c1ccccc1,inactive
6,Cc1ccc(NC(=O)CN2CCC(Cc3ccccc3)CC2)cc1S(=O)(=O)N(C)C,active: 11.2 µM
7,CCCC(=O)Nc1cc(C)cn(Cc2c(F)cccc2Cl)c1=O,"inconclusive: 31.6 µM [inhibitor, single point]"
8,C=CCn1c(SCC(=O)NC(=O)c2cccn2C)nc2ccccc2c1=O,"inconclusive: 6.31 µM [inhibitor, partial curve]"
9,CC(Sc1nc(-c2ccccc2)cc(C(F)(F)F)n1)C(=O)Nc1ccc2c(c1)OCO2 (stereo not given),"inconclusive: 3.16 µM [inhibitor, partial curve]"
10,CCCc1ccc(OCc2ccc(C(=O)N3CCSCC3)o2)cc1,"inconclusive: 31.6 µM [inhibitor, single point]"
11,Cc1ccc2c(c1)COc1c3ccc(C(=O)NCC4CC4)cc3nn1-2,"inconclusive: 11.2 µM [inhibitor, partial curve]"
12,O=C1/C(=C\c2ccco2)SC(=S)N1Cc1ccccc1,"inconclusive: 31.6 µM [inhibitor, single point]"
13,CCn1c(CN2CCN(c3cccc(C)c3C)CC2)n[nH]c1=S,inactive
14,FC(F)(F)c1cc(-c2ccc3c(c2)OCO3)nc(NCc2ccco2)n1,active: 6.31 µM
15,CCc1ccccc1NC(=S)N1CCN(c2ccccn2)CC1,inactive
16,O=C(O)C(CCc1ccccc1)N1C(=O)c2ccccc2C1=O (stereo not given),"inconclusive: 5.62 µM [inhibitor, single point]"
17,COc1ccc(-c2oc3cc(OC)c(O)c(OC)c3c(=O)c2OC)cc1O,active: 8.91 µM
18,CCCCNC(=S)NNC(=O)c1cc(-c2ccncc2)nc2ccccc12,inactive
19,CCCN(CC(=O)Nc1cc(Cl)ccc1Cl)C(=O)c1ccccc1SCC(=O)N1CCCC1,inactive
20,Cc1ccccc1Cn1nc(C)c(NC(=O)c2noc3c2CCc2ccccc2-3)c1C,"inconclusive: 14.1 µM [inhibitor, partial curve] and inconclusive: 10 µM [inhibitor, partial curve]"
21,O=S(=O)(c1cccc(-c2n[nH]c(=S)n2C2CCCC2)c1)N1CCOCC1,"inconclusive: 35.5 µM [inhibitor, partial curve, poor fit]"
22,Cc1ccc(CS/C(Nc2ccccc2C)=C(\C#N)C(=O)NCc2ccco2)c(C)c1,inactive
23,Cc1occc1C(=O)N/N=C/c1c(O)ccc2ccccc12,"inconclusive: 7.94 µM [inhibitor, partial curve]"
24,O=S(=O)(c1ccc2nc(-c3ccccc3)[nH]c2c1)N1CCN(c2ccc(Cl)cc2)CC1,"inconclusive: 31.6 µM [inhibitor, single point]"

row,Compound,Potency
1,Cc1cccc(N2CCN(C(=O)c3ccc4c(c3)OCCO4)CC2)c1C,"inconclusive: 3.16 µM [inhibitor, single point]"
2,CCn1c(SCC(=O)Nc2nc(-c3ccccc3)cs2)nnc1-c1ccccc1O,active: 11.2 µM
3,CC(Sc1ncc(C(F)(F)F)cc1Cl)C(=O)NCC1CCCO1 (stereo not given),"inconclusive: 10 µM [inhibitor, partial curve]"
4,CC(C)(C)c1ccc(OCCCNC2CCCC2)cc1,"inconclusive: 31.6 µM [inhibitor, single point]"
5,COc1ccc(C(=O)OCCc2sc[n+](CC(=O)c3ccccc3)c2C)cc1,"inconclusive: 11.2 µM [inhibitor, partial curve, poor fit]"
6,Cc1ccc(CCNC(=O)Cn2ccc3cc(S(=O)(=O)N4CCCC4)ccc32)cc1,"inconclusive: 31.6 µM [inhibitor, single point]"
7,C=CCc1ccc(OCC(O)CN2CCCCC2C)c(OC)c1 (stereo not given),"inconclusive: 31.6 µM [inhibitor, single point]"
8,O=C(COc1ccc(F)cc1Br)NCc1nnc2ccccn12,inactive
9,CCc1nn(CC(=O)N2CC(C)CC(C)C2)c(=O)c2cccn12 (stereo not given),inactive
10,Cc1cc(Cl)ccc1OCCCC(=O)N1CCN(C(=O)c2ccco2)CC1,"inconclusive: 14.1 µM [inhibitor, single point]"
11,CCOc1ccc2nc(NS(=O)(=O)c3ccc(NC(C)=O)cc3)sc2c1,inactive
12,COCc1nnc(NC(=O)c2cccc(NC(=O)c3ccccc3)c2)s1,inactive
13,CC(OC(=O)c1ccc(O)cc1)C(=O)Nc1nc(-c2ccccc2)cs1 (stereo not given),"inconclusive: 31.6 µM [inhibitor, single point]"
14,CS(=O)(=O)N1CCN(c2ccccc2NC(=O)c2cc3ccccc3o2)CC1,"inconclusive: 31.6 µM [inhibitor, single point]"
15,COCCN1CCN(C(=O)c2ccc3nc(Cc4ccc(OC)c(OC)c4)oc3c2)CC1,"inconclusive: 2.24 µM [inhibitor, full curve]"
16,c1ccc2c(c1)C(=Nn1cnnc1)c1ccccc1-2,"inconclusive: 31.6 µM [inhibitor, single point]"
17,O=C(N[C@@H](Cc1ccccc1)C(=O)Nc1ccc(F)cc1)C1CCNCC1,inactive
18,Cn1nnnc1-c1cc(Br)ccc1NC(=O)c1ccccc1,inactive
19,CC(C)(C)NC(=O)/C(=C\C=C\c1ccccc1)NC(=O)c1ccc([N+](=O)[O-])cc1,"inconclusive: 6.31 µM [inhibitor, partial curve]"
20,N#CCCn1cc(C(=O)CN2C(=O)C(=O)N(C3CCCC3)C2=O)c2ccccc21,inactive
21,O=C(CN1CCOCC1)Nc1ccc([N+](=O)[O-])cc1,inactive
22,CCCCC(O)(c1ccc(F)cc1)C(CN1CCOCC1)c1ccc(Cl)cc1 (stereo not given),"inconclusive: 31.6 µM [inhibitor, single point]"
